Consider 172 sequences from paper PMC10668032.

Some of the results follow. At the low end of the ranking, values are background and their order means little.

In this assay the target is SIX1-Q177R homeodomain (UniProt Q15475). The experiment in a line: universal protein binding microarray. The note with it: Universal all-10-mer PBM (8x60K, AMADID 030236), 300 nM GST-tagged protein, Alexa Fluor 488 anti-GST; buffer, salt, pH and temperature not stated; high values mean tight binding; most listed sequences are background and not binding sites; double strand, one strand shown.
Take ATTCACCC: the binding signal came out at 0.048 E-score.
As for CCATTGGG, the binding signal stood at 0.0654 E-score.
As to GTGGGATA, the binding signal amounted to 0.126 E-score.
Take CTGAGTAA: the binding signal is -0.242 E-score.
Next, ACCGGCGA: -0.0468 E-score; ATCTTCTA: -0.227 E-score.
To GTAAGACA belongs 0.102 E-score.
As for GTGCCTCA, the binding signal is -0.12 E-score.
To ATGATTGC belongs -0.0329 E-score; to CGATCCGC, 0.117 E-score.
To CATCACGG belongs -0.168 E-score; to GCAGTTCA, -0.251 E-score.
Next, CACTAGCA: 0.163 E-score; CCTCTTCC: -0.0987 E-score; AACACTCT: 0.35 E-score.
For TCGTACCA, the binding signal is -0.115 E-score.
For AGACCGTA, the binding signal is -0.235 E-score.
To CGTCGACA belongs 0.0742 E-score.
For the sequence ACGAGGAA, the binding signal amounted to 0.0788 E-score.
Take GTTGCAAA: the binding signal is -0.181 E-score.
For the sequence CACAATAC, the binding signal turned out to be 0.0874 E-score.
Next, CTACATAC: -0.0222 E-score; AGGCCGGC: -0.126 E-score; ATTACCTA: -0.00668 E-score.
Regarding GCAAAATA, the binding signal was -0.0852 E-score.
Next, TACACACA: 0.259 E-score; CGGTTAAC: 0.0714 E-score; AGGAATGC: -0.333 E-score.
Take CCACGGAC: the binding signal is -0.197 E-score.
Next, ATGGTAGG: -0.0293 E-score.
For GACATTGC, the binding signal is -0.159 E-score.
As for CCCTCTGC, the binding signal is -0.0846 E-score.
Next, CTTACATA: -0.129 E-score.
For the sequence AGCACCAA, the binding signal is 0.196 E-score.
To GGCAGCTA belongs -0.193 E-score.
For ACCCTGAC, the binding signal was found to be 0.0909 E-score.
To AGAGCGGA belongs -0.234 E-score; to CACGACCA, 0.227 E-score.
To GTGTATCA belongs 0.392 E-score; to CGTATAAA, 0.0911 E-score; to CTCCGCTA, -0.14 E-score.
AAAGCGCC: the binding signal was -0.134 E-score.
For the sequence CCTAAATC, the binding signal was -0.0794 E-score.
For GTCGCATA, the binding signal is -0.053 E-score.
As to CACAATGA, the binding signal came out at 0.0742 E-score.
Next, AGCATTTG: -0.0392 E-score.
For GCTCTCGA, the binding signal is -0.133 E-score.
Next, ACTATGCG: 0.17 E-score; CCCACACG: 0.288 E-score.
On to AACTATCT, for which the binding signal was -0.36 E-score.
For the sequence CATCTACG, the binding signal was -0.055 E-score.
To ATAAGACA belongs 0.097 E-score.
To AAAGCTCT belongs -0.0399 E-score.
For the sequence AACTGCTA, the binding signal is -0.0875 E-score.
Next, AGGGTACT: 0.122 E-score; CGTGGTGA: -0.152 E-score; GGGGTTAC: 0.261 E-score.
Next, AAGTTGGG: 0.0943 E-score; AGAGATGG: -0.0936 E-score; AAGGGCGT: -0.0321 E-score.
To GACGGGAC belongs -0.267 E-score; to CGCAGCCA, 0.0178 E-score; to CCATGAGG, -0.112 E-score.
On to ATGTTGCC, for which the binding signal is -0.22 E-score.
Next, CGAATGGA: 0.0397 E-score; AATGGTCC: -0.189 E-score; ACCGCTGG: 0.107 E-score.
On to CCTATGAG, for which the binding signal was 0.122 E-score.
As for ACTGGTAA, the binding signal was -0.103 E-score.
Turning to AACACTGT, the binding signal is 0.344 E-score.
On to GCCTGGCA, for which the binding signal was -0.256 E-score.
To GACGCTCC belongs -0.137 E-score; to ACTACGGA, -0.0336 E-score.
On to GTACAATA, for which the binding signal was -0.0198 E-score.
As for AGCGCGAA, the binding signal was -0.0336 E-score.
In the case of AATCCACG, the binding signal was -0.216 E-score.
To CAACGAGC belongs 0.0176 E-score.
Regarding CTTCCGCA, the binding signal stood at 0.0572 E-score.
Next, CTGCGCCA: -0.18 E-score.
To ATATTAAC belongs -0.0434 E-score.
Regarding GCTATTAC, the binding signal was 0.0419 E-score.
For the sequence AAAGGCGT, the binding signal is -0.177 E-score.
Next, ATCGACGC: -0.0739 E-score.
With GCAGCTAA, the binding signal was -0.117 E-score.
To CATAGAGC belongs -0.148 E-score; to ACGCCCCC, 0.19 E-score.
To TCGAGGAA belongs -0.184 E-score; to ATACCAAG, 0.0629 E-score; to ACGTCTGG, -0.0903 E-score.
Consider CCATGCGG, for which the binding signal was -0.0792 E-score.
Take CCATTATC: the binding signal stood at 0.0133 E-score.
To GATGTAAC belongs 0.0393 E-score; to AGGTGATG, -0.0885 E-score.
Consider ACACAATG, for which the binding signal came to 0.164 E-score.
Next, GTCTTCTA: -0.0243 E-score; ATTCACGA: -0.115 E-score; CGTGGCAA: -0.176 E-score.
To AGGCAGGC belongs -0.237 E-score; to GGGTCCTA, 0.0332 E-score.
Next, AGTTTGGA: -0.0686 E-score.
As for CTGTTCTA, the binding signal is -0.117 E-score.
Next, ACTACTAT: -0.0262 E-score; ACTGACCC: 0.213 E-score.
For AATACGGC, the binding signal is -0.0017 E-score.
CTCGATAC: the binding signal came to 0.121 E-score.
To CATCAATG belongs -0.202 E-score; to AACGAGCG, 0.099 E-score; to AAGTTAGA, 0.0264 E-score.
On to AACGCACC, for which the binding signal was 0.146 E-score.
For CGAAGATA, the binding signal is 0.0654 E-score.
For TAGAACTA, the binding signal is -0.136 E-score.
Take ATCACTGA: the binding signal was -0.173 E-score.
Regarding GAAAACAA, the binding signal is -0.0374 E-score.
Consider ACGCAGTG, for which the binding signal was 0.212 E-score.
Take GAACCGAC: the binding signal worked out at 0.0354 E-score.
Next, ATCGCGAC: -0.211 E-score; ACACGTAT: 0.388 E-score.
CACCAGCA: the binding signal was determined as 0.341 E-score.
In the case of GAGGATGC, the binding signal is -0.0878 E-score.
Next, AAGGTCGT: -0.11 E-score; GATTCGCA: -0.0516 E-score.
To ATATACCC belongs 0.238 E-score; to AAGAGGAC, -0.0666 E-score.
On to CGCGGCGC, for which the binding signal is -0.00608 E-score.
To CTTAAACA belongs 0.0215 E-score.
Next, CTGCTTTC: -0.0783 E-score; ATCCGTTA: -0.106 E-score; GGACACCA: 0.483 E-score.
In the case of AACTCCGC, the binding signal came out at 0.0512 E-score.
To GCTGCTAA belongs 0.083 E-score.
For GTCAAACA, the binding signal was 0.189 E-score.
To AGACTACG belongs -0.202 E-score; to AAGTGTTG, 0.289 E-score.
With AGAAAACC, the binding signal was -0.234 E-score.
Next, ACAGAGGA: -0.0252 E-score; GCCAAAAA: -0.194 E-score.
In the case of AATTGATC, the binding signal was 0.00817 E-score.
In the case of ATCCCGTA, the binding signal was 0.099 E-score.
Next, ACCAGGGA: 0.121 E-score; CGGTTAAA: -0.123 E-score.
To ACCTAGGC belongs -0.0374 E-score; to AGTGGAAG, -0.0981 E-score; to GTATCCGA, 0.312 E-score.
AGAGATAA: the binding signal was -0.168 E-score.
To CATGGAAC belongs -0.169 E-score; to GGGGACCA, -0.0564 E-score; to CTTAGGAC, 0.0624 E-score.
For the sequence CTCTACAC, the binding signal came to 0.391 E-score.
To GATTAACA belongs 0.162 E-score; to GAAGTAGC, -0.13 E-score; to CAAATCGC, -0.118 E-score.
Next, AAACTGAC: 0.0245 E-score; ATTCCAAA: -0.0103 E-score; ACTAGCAA: 0.0822 E-score.
Take CCTCGAAC: the binding signal was -0.015 E-score.
To ATCAAACG belongs -0.288 E-score.
As for AGAACGAT, the binding signal was -0.0942 E-score.
As to AACTCCCA, the binding signal stood at 0.0712 E-score.
For TGGACTAA, the binding signal is -0.15 E-score.
Take ATCATGTA: the binding signal is -0.0846 E-score.
As for GCGTATCC, the binding signal came out at 0.176 E-score.
To GCATTACC belongs -0.0109 E-score; to GCGGGCTA, -0.118 E-score.
Take TAGGACCA: the binding signal was -0.125 E-score.
To ATATGCAC belongs 0.0852 E-score.
On to ACCTCGAG, for which the binding signal turned out to be 0.00722 E-score.
Next, CGCGCGAG: -0.174 E-score; AGTAGACT: -0.146 E-score.
To ACTGAAAT belongs -0.129 E-score; to GATCGGCC, 0.0859 E-score; to ACGATATG, 0.0101 E-score.
To AGTGATTC belongs -0.0729 E-score.
